The values that follow come from the supplement of paper PMC11417369.

± gives the standard deviation of the averaged measurements. The list shows a part of the results.

This assay concerns PfAP2-G AP2 domain (GST-tagged). Briefly: gcPBM binding intensity (ln(normalized median fluorescence intensity)); higher = stronger DNA binding. The essentials:
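Binding intensity is the highest Masliner-normalised natural-log median intensity over replicate spots in either probe orientation. To obtain it, GST-tagged P. falciparum DNA-binding domains made in E. coli were incubated for 1 h on an Agilent 4 × 180k array of primer-extended double-stranded 36-bp intergenic genomic probes plus negative controls. Detection used Alexa488 anti-GST antibody with scanning at 488 nm.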
For “ATATTATATTTCTTTTGTACATATTATATAATATAT [XGTACX_site7198]”, the “gcPBM binding intensity (ln)” value is 11.1 ± 0.54.
On to “TAATACCATTGTCATGCATGCACATTATTACTCTAA [TGCATGCA_site160]”, for which the “gcPBM binding intensity (ln)” value is 9.95 ± 0.15.
The figure for “TCGTAATTTTTTTTTATATATTAGGAATTTATAAAA [XGTACX_negctrl_site409]” is 9.62 ± 0.11; for “ATTAATATAAAAAGGTAAATGGATGTAATATATATA [XGTACX_negctrl_site2]” it is 9.94 ± 0.16.
“AAAAGGTATGTTATACATAGATATGCACATATATGT [TGCATGCA_negctrl_site96]”: the “gcPBM binding intensity (ln)” value worked out at 10.4 ± 0.19.
For “GTAGGATTTTCTTTTGTGCGCAATATAAAAAGAAAA [GTGCAC_site9514]”, the “gcPBM binding intensity (ln)” value was 10.6 ± 0.49.
In the case of “AAAATTGTTATTTTATGTACTTATATTTATTTATTT [XGTACX_site3478]” it was 11.3 ± 0.79; in that of “CTTCTGTAATTATCACGTACATATAATAATTAAAAT [XGTACX_site8973]”, 11.3 ± 0.93; in that of “TTTTTATCTTTGCTGTGTACATAAATAAAAATAACT [XGTACX_site7625]”, 11.4 ± 0.88.
The figure for “ATAAATGACAGACACACACACAAAAAAAAAAAACAA [CACACA_site2626]” is 10.1 ± 0.42.
In the case of “ACCCTATCTGTAACTACACACCGCATATTGTTTACT [CACACA_site5661]” it was 10.4 ± 0.22; in that of “AAATATTTATATGTTACACACTGTTTATAACTTTCT [CACACA_site6752]”, 9.95 ± 0.071.
For the sequence “ATAGTTTAATTTATATGTACATATAATATTGATTTG [XGTACX_site7520]”, the “gcPBM binding intensity (ln)” value stood at 11.2 ± 0.71.
The figure for “TATATTTTATATTGGTGTACAATTTTTTTTTTTTTT [XGTACX_site4291]” is 11.4 ± 0.91; for “TTTTTTTTGATAAGTTGTACAATGATATATATCCCT [XGTACX_site3560]” it is 11.2 ± 0.79; for “CCTTTTTTTTTTTTATGTACTAAAATAAAATTAGAA [XGTACX_site5956]” it is 11.3 ± 0.94.
In the case of “ACAATTTATATTATATGTACTTAAAAAGTTCGTAAA [XGTACX_site6421]” it was 11.2 ± 0.79; in that of “TTTTATACATAAATATGTACGTATATATAATGAATT [XGTACX_site1337]”, 11.3 ± 0.73; in that of “GCCTCATCGTAGCAGTGTACGTTTTTTTTTTTTTTT [XGTACX_site8648]”, 11.5 ± 0.79.
In the case of “ATAACAACCCAATGTTGTACATTTAAATATAACGTA [XGTACX_site7114]” it was 11 ± 0.51; in that of TTCTAAAATTATATAGTGCAATTATATTAATTTTTC, 9.785 ± 0.078.
Regarding “TATATATATTTATGTACACACACACCGATAAATAAA [CACACA_site4404]”, the “gcPBM binding intensity (ln)” value is 11.6 ± 0.88.
The figure for “TATAACATATGACACACACACATACATACACAAAAA [CACACA_site6935]” is 10.4 ± 0.43; for “AACAAAATAAAAAAAACATGCAAGAATTCTTATATG [TGCATGCA_site714]” it is 9.66 ± 0.18; for “ATTTGTATTGTATATGCACACATAGAACACTTTTTT [CACACA_site9373]” it is 10.2 ± 0.16.
The figure for “TTACGCGCTTATTACACACACATACAAATAAGGATT [CACACA_site3486]” is 10.3 ± 0.25.
Consider “AAAAATAAAAAAAATACATGCAATGAAACATTTATT [TGCATGCA_site263]”, for which the “gcPBM binding intensity (ln)” value is 9.63 ± 0.18.
As to “TTATACAGATATTTAACACACATTTTATAAAGTGCC [CACACA_site4851]”, the “gcPBM binding intensity (ln)” value was found to be 9.87 ± 0.11.
In the case of “TTGTGTTTGAAAAAATGTACATGTGTCTTACAACAA [XGTACX_site8371]” it was 11.3 ± 0.82; in that of “TAGTATCAATCTTATACATGCATAAAATAATTATAA [TGCATGCA_site1052]”, 10 ± 0.13; in that of “GTGTTCTTGTTATACACACACATATTTATATTTATA [CACACA_site6615]”, 10.4 ± 0.26.
The figure for “TTTTATTCATTAATTTGTACTTATCCTTTTGCTTAA [XGTACX_site1243]” is 11 ± 0.53.
As to “TCATTAATTAAATCTTGTACATATTCATATATATAT [XGTACX_site2241]”, the “gcPBM binding intensity (ln)” value was 11.1 ± 0.49.
In the case of “AAAGTATAGATGTATACACACACCAAACGTTAAAAA [CACACA_site3081]”, the “gcPBM binding intensity (ln)” value was determined as 10.13 ± 0.014.
Consider “TAAGCCAAGGGATAAATAAAATAACAAAATGAAATC [GTGCAC_negctrl_site601]”, for which the “gcPBM binding intensity (ln)” value was found to be 9.66 ± 0.36.
In the case of “TTTATTTATATAATTACACACATATATACGCAAATG [CACACA_site2794]” it was 10.3 ± 0.27; in that of “GACACATATAAATATTAACACACATAATGAATTATA [CACACA_site8881]”, 9.815 ± 0.092.
In the case of “TAAAGTTTTTTTTTAACACACACATAATAAAATAAA [CACACA_site8042]” it was 10.2 ± 0.22; in that of “TAAAAAAATAAAAAAAAAAAATTATAAAATTATATA [GTGCAC_negctrl_site302]”, 9.25 ± 0.071; in that of “AAATATATTATAAATTGTACGTTTATATATATTATT [XGTACX_site5110]”, 11 ± 0.71.
The figure for “GATGATGTTACTTAAGTGCATATAAATTATATTTTA [GTGCAC_site9940]” is 10.2 ± 0.18; for “ACATTATGCCATAAATGTACACATACATATACACAG [XGTACX_site1330]” it is 11.3 ± 0.83.
For “TAACTAAGGAATAATACACACAGAAATATATATTTA [CACACA_site344]”, the “gcPBM binding intensity (ln)” value was determined as 9.92 ± 0.042.
In the case of “AGCGTATTATACTGACGTACATTTTATGTAACTCCA [XGTACX_site2715]” it was 11.4 ± 1.1; in that of “AACATAAAATGGATATGTACATAAAAATATATACTC [XGTACX_site7775]”, 11.2 ± 0.66.
